# PubChem BioAssay AID686970 (National Center for Advancing Translational Sciences (NCATS), 2013)
# Among all 360,000 compounds or so, about 6,000 (1.7%) were called active. Inconclusive results, whose numbers are uncertain, are shown with a selection of clear calls. Calls follow the shape of the dose curve; as a rule, active = well fitted cell-killing curve with a large enough effect; inconclusive = small, poorly fitted or top-dose-only effect, or effect the other way; inactive = flat fitted curve, though single readings scatter. Potencies of inconclusive entries are left out as doubtful fits.
# Test: qHTS for induction of synthetic lethality in tumor cells producing 2HG: qHTS for the HT-1080-NT fibrosarcoma cell line;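 also: NT is the 2HG producing partner of a matched IDH1 knockdown line; nearly all actives have a fitted effect of over 55% in size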;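 as to activity, negative = less viability: 0% = DMSO-treated cells and -100% = media-only wells without cells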
# Conditions: HT-1080-NT fibrosarcoma viability, CellTiter-Glo ATP luminescence, 48 h; activity, negative = less viability: at 46.1 µM (top of the series) unless noted
# In short: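 Luminescent CellTiter-Glo readout after 48 hours of compound exposure at 37 degrees C defined viability of HT-1080-NT cells. Activity was normalized to DMSO wells and cell-free media wells; concentration-response curves were fitted and assigned curve classes.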
# Potency is read from the fitted curve at half-maximal effect; tags tell the direction and shape of the fitted curve.
Structure (SMILES),"activity, negative = less viability",Potency
CS(=O)(=O)N1CCc2cc(C(=O)N3CCOCC3)ccc21,inactive: 12.6%,
OC(CNCCC1C=Nc2ccccc21)Cn1c2ccc(Cl)cc2c2cc(Cl)ccc21 (stereo unspecified),,"inconclusive [cytotoxic, single point]"
Cc1csc(N/N=C/c2ccccn2)n1,,"inconclusive [cytotoxic, full curve]"
CC1(C)Cc2c(c(N3CCOCC3)nc3sc4c(NCCN)ncnc4c23)CO1,,"inconclusive [cytotoxic, single point]"
O=C(c1ccccc1)c1ccc2cc(O)ccc2c1,,"inconclusive [cytotoxic, single point]"
Nn1cnnc1N/N=C/c1ccc(Cl)cc1Cl,,"inconclusive [cytotoxic, single point]"
COc1ccccc1Cc1c(-c2cccc(Cl)c2)nc2ccc(C)cn12,,"inconclusive [cytotoxic, single point]"
CCCCCCN1C[C@@H](n2cc(-c3ccc(F)cc3)nn2)[C@H](O)C[C@@H]1c1ccc(OC)cc1,,"inconclusive [cytotoxic, single point]"
Cc1cc(C(=O)COC(=O)c2ccc(O)cc2)c(C)n1CC1COc2ccccc2O1 (stereo unspecified),,"inconclusive [cytotoxic, single point]"
COc1ccc(CC(N)c2csc(NC(=O)Nc3ccccc3C(C)(C)C)n2)cc1 (stereo unspecified),,"inconclusive [cytotoxic, single point]"
COc1ccc(S(=O)(=O)N(C)CC(=O)NCc2ccco2)cc1Cl,,"inconclusive [rising, single point]"
COC(=O)c1[nH]c2ccccc2c1NC(=O)CN1CCN(C/C=C/c2ccccc2)CC1,,"inconclusive [cytotoxic, single point]"
O=C(NCCC1=CCCCC1)c1c(O)nc2ccccn2c1=O,,"inconclusive [cytotoxic, partial curve]"
Cc1ccc(C(=O)Nc2nnc(C)s2)cc1,inactive: 15.3%,
Cc1cc(C)cc(-n2c(SCC(=O)Nc3cccc(S(=O)(=O)NC4=NCCCCC4)c3)nc3ccccc3c2=O)c1,inconclusive: 7.02%,
COc1ccc(NC(=S)Nc2cnc3ccccc3c2)c(OC)c1,inactive: 15.9%,
CC(=O)Nc1ccc(Nc2nccc(C)n2)cc1,,"inconclusive [rising, single point]"
Cc1ccc(NC(=O)C2CCN(S(=O)(=O)c3ccc4c(c3)OCCCO4)CC2)nc1,,"inconclusive [cytotoxic, single point]"

Structure (SMILES),"activity, negative = less viability",Potency
N#C/C(=C\c1ccc(OCc2ccccc2)cc1)C(N)=O,inactive: -5.86%,
CC1(C(=O)NCc2ccccc2Br)CCN1C(=O)CCc1ccc(Cl)cc1Cl (stereo unspecified),,"inconclusive [cytotoxic, single point]"
NC(=S)NNC(=O)c1cccc(Cl)c1,inactive: 8.87%,
Cc1cc(-n2c(SCC(=O)NCc3cccs3)nc3n[nH]c(C)c3c2=N)ccc1Cl,,"inconclusive [cytotoxic, single point]"
Cc1ccc(Cl)cc1N1CCN(C(=S)NCc2ccco2)CC1,,"inconclusive [cytotoxic, single point]"
Cn1ncc(Cl)c1C(=O)Nc1nnc(C2CC2)s1,,"inconclusive [rising, single point]"
O=C(Nc1ccc(Cl)cc1C(=O)Nc1ccc(Br)cn1)c1ccco1,inactive: -15.5%,
CC(=O)NC(CC(=O)NCCOc1ccccc1F)c1ccccc1 (stereo unspecified),inactive: 16.3%,
Clc1ccc(CN2CCC(Cc3ccccc3)CC2)cc1,inactive: 1.45%,
Cc1cccc2nc(CSc3nnnn3-c3ccccc3)cn12,inactive: -4.54%,
CCCCC[C@@H](C)N1C[C@H](COCc2ccccc2)Oc2cc(N3CC[C@@H](O)C3)ccc2S1(=O)=O,,"inconclusive [cytotoxic, single point]"
Cc1ccc2c(c1)[C@H]1[C@H](CO2)[C@H](c2ccccc2)[C@]2(C)C(=O)Nc3ccc(F)cc3C(=O)N12,,"inconclusive [cytotoxic, full curve]"
Cc1ccccc1Nc1nc(N)nc(-c2oc3ccccc3c2C)n1,,"inconclusive [cytotoxic, single point]"
CCc1ccccc1NC(=O)c1ccc(-n2c(C)ccc2C)cc1,,"inconclusive [cytotoxic, single point]"
O=C(NCCc1ccc(Cl)cc1)c1cnccn1,inactive: 9.45%,
COc1cc(/C=N/O)cc(Br)c1OS(=O)(=O)c1ccc(C)cc1,,"inconclusive [cytotoxic, partial curve]"
COC(=O)c1ccc(CSc2nnc(Nc3ccccc3OC)s2)o1,,"inconclusive [cytotoxic, single point]"
CCCCCC1(C)NC(=S)N(c2ccccc2)N1 (stereo unspecified),,"inconclusive [cytotoxic, single point]"
